{"source": "PubChem BioAssay AID1259409", "about": "(Chemical Carcinogenesis Research Information System (CCRIS), 2018)", "origin": "cited, not measured here", "test_system": "rodent chemically induced tumor inhibition, incidence and multiplicity", "experiment": "CCRIS tumor inhibitor studies", "conditions": "Species: RAT, Promoter: NONE USED", "from_the_text": "The CCRIS database contains chemical records with carcinogenicity, mutagenicity, tumor promotion, and tumor inhibition test results. It was developed by the National Cancer Institute (NCI). Data are derived from studies cited in primary journals, current awareness tools, NCI reports, and other sources. Test results have been reviewed by experts in carcinogenesis and mutagenesis.\nCCRIS provides historical information from the years 1985 - 2011. It is no longer updated.\nThis is an archive assay for CCRIS tumor inhibitor studies.", "note": "The source gives many values for each of these; only a part stands here."}
{"smiles": "O=[Se](O)O", "values": [{"measurement": "tumour outcome (control, treated, inhibition, significance)", "setting": "Carcinogen: 1,2-DIMETHYLHYDRAZINE DIHYDROCHLORIDE, 306-37-6, Carcinogen: 1,2-DIMETHYLHYDRAZINE DIHYDROCHLORIDE, 306-37-6, Dose [Inhibitor]: 4 PPM IN DRINKING WATER DAILY FOR 13 WK PRIOR TO CARCINOGEN TREATMENT (STUDY DURATION: 43-53 WK), Dose [Inhibitor]: 4 PPM IN DRINKING WATER DAILY FOR 13 WK PRIOR TO CARCINOGEN TREATMENT (STUDY DURATION: 43-53 WK), Route [Inhibitor]: ORAL, Strain/Sex: SPRAGUE-DAWLEY/MALE, VILLOUS ADENOMA, Target Tissue: Type of Lesion: COLON: ADENOCARCINOMA, VILLOUS ADENOMA, Dose [Carcinogen]: 20 MG/KG BW 1/WK FOR 20 WK", "value": "29/32 (91%), 61/72 (85%), 7%, not calculated"}, {"measurement": "tumour outcome (control, treated, inhibition, significance)", "setting": "Carcinogen: 1,2-DIMETHYLHYDRAZINE DIHYDROCHLORIDE, 306-37-6, Carcinogen: 1,2-DIMETHYLHYDRAZINE DIHYDROCHLORIDE, 306-37-6, Dose [Inhibitor]: 4 PPM IN DRINKING WATER DAILY FOR 33 WK STARTING 13 WK PRIOR TO CARCINOGEN TREATMENT AND CONTINUING FOR 20 WK DURING CAR, Dose [Inhibitor]: 4 PPM IN DRINKING WATER DAILY FOR 33 WK STARTING 13 WK PRIOR TO CARCINOGEN TREATMENT AND CONTINUING FOR 20 WK DURING CAR, Route [Inhibitor]: ORAL, Strain/Sex: SPRAGUE-DAWLEY/MALE, VILLOUS ADENOMA, Target Tissue: Type of Lesion: COLON: ADENOCARCINOMA, VILLOUS ADENOMA, Dose [Carcinogen]: 20 MG/KG BW 1/WK FOR 20 WK", "value": "29/32 (91%), 62/68 (91%), 0%, not calculated"}, {"measurement": "tumour outcome (control, treated, inhibition, significance)", "setting": "Carcinogen: 1,2-DIMETHYLHYDRAZINE DIHYDROCHLORIDE, 306-37-6, Carcinogen: 1,2-DIMETHYLHYDRAZINE DIHYDROCHLORIDE, 306-37-6, Dose [Inhibitor]: 4 PPM IN DRINKING WATER DAILY STARTING SIMULTANEOUSLY WITH CARCINOGEN TREATMENT AND CONTINUING FOR DURATION OF STUDY (ST, Dose [Inhibitor]: 4 PPM IN DRINKING WATER DAILY STARTING SIMULTANEOUSLY WITH CARCINOGEN TREATMENT AND CONTINUING FOR DURATION OF STUDY (ST, Route [Inhibitor]: ORAL, Strain/Sex: SPRAGUE-DAWLEY/MALE, VILLOUS ADENOMA, Target Tissue: Type of Lesion: COLON: ADENOCARCINOMA, VILLOUS ADENOMA, Dose [Carcinogen]: 20 MG/KG BW 1/WK FOR 20 WK", "value": "29/32 (91%), 59/68 (87%), 4%, not calculated"}, {"measurement": "tumour outcome (control, treated, inhibition, significance)", "setting": "Carcinogen: 3'-METHYL-4-DIMETHYLAMINOAZOBENZENE, 55-80-1, Carcinogen: 3'-METHYL-4-DIMETHYLAMINOAZOBENZENE, 55-80-1, Dose [Inhibitor]: 5 PPM IN DIET DAILY FOR 4 WK STARTING 4 WK AFTER COMPLETION OF THE FIRST 4 WK OF CARCINOGEN TREATMENT (STUDY DURATION: 2, Dose [Inhibitor]: 5 PPM IN DIET DAILY FOR 4 WK STARTING 4 WK AFTER COMPLETION OF THE FIRST 4 WK OF CARCINOGEN TREATMENT (STUDY DURATION: 2, Route [Inhibitor]: ORAL, Target Tissue: Type of Lesion: LIVER: TUMOR, Dose [Carcinogen]: 0.064% IN DIET FOR 4 WK THEN A 4 WK CARCINOGEN-FREE PERIOD FOLLOWED BY 0.048% FOR AN ADDITIONAL 4 WK", "value": "4/10 (40%), 2/9 (22%), 45%, not calculated"}, {"measurement": "tumour outcome (control, treated, inhibition, significance)", "setting": "Carcinogen: 3'-METHYL-4-DIMETHYLAMINOAZOBENZENE, 55-80-1, Carcinogen: 3'-METHYL-4-DIMETHYLAMINOAZOBENZENE, 55-80-1, Dose [Inhibitor]: 5 PPM IN DIET DAILY FOR 4 WK STARTING AFTER COMPLETION OF THE FIRST 4 WK OF CARCINOGEN TREATMENT (STUDY DURATION: 20 WK), Dose [Inhibitor]: 5 PPM IN DIET DAILY FOR 4 WK STARTING AFTER COMPLETION OF THE FIRST 4 WK OF CARCINOGEN TREATMENT (STUDY DURATION: 20 WK), Route [Inhibitor]: ORAL, Target Tissue: Type of Lesion: LIVER: TUMOR, Dose [Carcinogen]: 0.064% IN DIET DAILY FOR 4 WK BEFORE AND ANOTHER 4 WK AFTER AGENT TREATMENT", "value": "8/13 (62%), 4/13 (31%), 50%, not calculated"}, {"measurement": "tumour outcome (control, treated, inhibition, significance)", "setting": "Carcinogen: 7,12-DIMETHYLBENZ[A]ANTHRACENE, 57-97-6, Carcinogen: 7,12-DIMETHYLBENZ[A]ANTHRACENE, 57-97-6, Dose [Inhibitor]: 0.15 UG/G OF A TORULA YEAST DIET DAILY FOR 36 D STARTING 22 D BEFORE CARCINOGEN TREATMENT FOLLOWED BY 0.21 UG/G OF A PUR, Dose [Inhibitor]: 0.15 UG/G OF A TORULA YEAST DIET DAILY FOR 36 D STARTING 22 D BEFORE CARCINOGEN TREATMENT FOLLOWED BY 0.21 UG/G OF A PUR, Route [Inhibitor]: ORAL, Strain/Sex: SPRAGUE-DAWLEY/FEMALE, Target Tissue: Type of Lesion: MAMMARY GLAND: CARCINOMA, Dose [Carcinogen]: 7.5 MG IN 1 ML SESAME OIL ONCE AT 50 D OF AGE", "value": "20/25 (80%), 22/24 (92%), -15%, not significant"}, {"measurement": "tumour outcome (control, treated, inhibition, significance)", "setting": "Carcinogen: 7,12-DIMETHYLBENZ[A]ANTHRACENE, 57-97-6, Carcinogen: 7,12-DIMETHYLBENZ[A]ANTHRACENE, 57-97-6, Dose [Inhibitor]: 0.15 UG/G OF A TORULA YEAST DIET DAILY FOR 36 D STARTING 22 D BEFORE CARCINOGEN TREATMENT FOLLOWED BY 0.21 UG/G OF A PUR, Dose [Inhibitor]: 0.15 UG/G OF A TORULA YEAST DIET DAILY FOR 36 D STARTING 22 D BEFORE CARCINOGEN TREATMENT FOLLOWED BY 0.21 UG/G OF A PUR, Route [Inhibitor]: ORAL, Strain/Sex: SPRAGUE-DAWLEY/FEMALE, Target Tissue: Type of Lesion: MAMMARY GLAND: CARCINOMA, Dose [Carcinogen]: 15 MG IN 1.0 ML SESAME OIL ONCE AT 50 D OF AGE", "value": "17/17 (100%), 18/19 (95%), 5%, not significant"}]}
